# In PubChem BioAssay AID504339 (National Center for Advancing Translational Sciences (NCATS), 2011):
# “And” between values parts separate entries of the source, which are not always exact repeats. Equal values may be shown once. Out of some 390,000 compounds screened, about 17,000 (4.4%) were called active. This list was built around the results that the source calls inconclusive (neither active nor inactive); the mix of calls is not that of the screen. Calls follow the shape of the dose curve; as a rule, active = well fitted inhibition curve with a large enough effect; inconclusive = small, poorly fitted or top-dose-only effect; inactive = no such curve, though single readings can be large or run the other way. A potency beside an inconclusive call is a rough fit, not a confirmed value. More than one record can exist for a structure, and the calls need not agree.
# Biological target: Lysine-specific demethylase 4A (Homo sapiens) (UniProt O75164)
# Assay: qHTS Assay for Inhibitors of JMJD2A-Tudor Domain; also: nearly all actives have a fitted effect of over 50% in size
# Conditions: AlphaScreen JMJD2A-Tudor / H3K4me3 peptide binding; series mostly up to 114 µM
# Description: JMJD2A is a jumonji-domain-containing lysine demethylase that uses Fe(II) together with 2-OG to effect oxidative demethylation of histones. Methylation is one of many […] modification that affect epigenetic transcription. […] It is proposed that the functions of JmjD2A binding to the histones, is to maintain marks after they are installed and to spread the modifications by […], establishing a self-propagating cycle for rapid methylation over a large area of chromatin. […] Thus, small molecule targeting of the JMJD2A-tudor domain interaction with its target methylhistone mark is expected to enable sophisticated experiments probing the fine regulatory pathways leading to selective demethylation of a given methyllysine locus based on the methylation state of adjacent histone marks. A quantitative high throughput AlphaScreen has been developed to identify small molecule inhibitors based on a protocol published by NCGC and SGC [4].
# Although AlphaScreen has significant advantages with its utility in a variety of epigenetic target assays, the primary screening data provided in this deposition should be used with caution due to the prevalence of screening artifacts. The top compound concentration tested was high (>100uM) in this assay, which increases number of actives and potential artifacts. An AlphaScreen counterscreen is highly recommended to be run against any putative actives to eliminate non-specific artifacts. Alternatively, one can use other AlphaScreen assays in PubChem to filter out promiscuous hits.
# [1] Lee, J. et al. Distinct binding modes specify the recognition of methylated histone H3K4 and H4K20 by JMJD2A-tudor. Nat Struct Mol Biol. 15(1); 109-11. 2008. PMID: 18084306
# [2] Yasgar, et al. Compound Management for Quantitative High-Throughput Screening. JALA. 2008 Apr;13(2):79-89. PMID: 18496600
# [3] Inglese, et al. Quantitative high-throughput screening: a titration-based approach that efficiently identifies biological activities in large chemical libraries. Proc Natl Acad Sci. 1;103(31):11473-8. 2006. PMID: 16864780
# [4] Quinn et al. A homogeneous method for investigation of methyl-dependent protein-protein interactions in epigenetics. Nucleic Acids Res., 38(2):e11. 2010. PMID: […]
# [5] Baell,Holloway. New substructure filters for removal of pan assay interference compounds (PAINS) from screening libraries and for their exclusion in bioassays. J Med Chem. 53(7):2719-40. 2010. PMID: 20131845
# NIH Molecular Libraries Probe Production Network [MLPCN]
# NIH Chemical Genomics Center [NCGC]
# Structural Genomics Consortium (SGC)
# To each well of a 1,536w plate, 2ul of JMJD2A-Tudor (final 100nM) and 1ul biotinylated histone peptide methylated at Lys4 [b-H3(1-18)K4me3] (final 50nM) were added in 1x PBS buffer, pH 7.4, containing 0.01% Tween-20, using a nanoliter dispenser. Formation of a protein-peptide complex proceeded at room temperature for 30 min. A Kalypsys pin-tool transferred 23nl of library compound solution in DMSO to each well. Following a 30 min incubation of the protein-peptide complex with compounds at room temperature, a mixture of 40 µg/mL each streptavidin-coated donor and nickel chelate acceptor AlphaScreen beads (final 10 µg/mL) was added in a 1ul dispense for a final volume of 4ul, followed by a brief centrifugation (1000 rpm, 1 min). Plates were incubated protected from the light for 20 min at room temperature. Microplates were then read on an EnVision multilabel plate reader using the 1,536 plate HTS AlphaScreen aperture (excitation time 80 ms, measurement time 240 ms).
# Potency is read from the fitted curve at half-maximal effect; tags tell the direction and shape of the fitted curve.
# Sequence of UniProt O75164 (O75164 whole entry, looked up, the tested form may be a part): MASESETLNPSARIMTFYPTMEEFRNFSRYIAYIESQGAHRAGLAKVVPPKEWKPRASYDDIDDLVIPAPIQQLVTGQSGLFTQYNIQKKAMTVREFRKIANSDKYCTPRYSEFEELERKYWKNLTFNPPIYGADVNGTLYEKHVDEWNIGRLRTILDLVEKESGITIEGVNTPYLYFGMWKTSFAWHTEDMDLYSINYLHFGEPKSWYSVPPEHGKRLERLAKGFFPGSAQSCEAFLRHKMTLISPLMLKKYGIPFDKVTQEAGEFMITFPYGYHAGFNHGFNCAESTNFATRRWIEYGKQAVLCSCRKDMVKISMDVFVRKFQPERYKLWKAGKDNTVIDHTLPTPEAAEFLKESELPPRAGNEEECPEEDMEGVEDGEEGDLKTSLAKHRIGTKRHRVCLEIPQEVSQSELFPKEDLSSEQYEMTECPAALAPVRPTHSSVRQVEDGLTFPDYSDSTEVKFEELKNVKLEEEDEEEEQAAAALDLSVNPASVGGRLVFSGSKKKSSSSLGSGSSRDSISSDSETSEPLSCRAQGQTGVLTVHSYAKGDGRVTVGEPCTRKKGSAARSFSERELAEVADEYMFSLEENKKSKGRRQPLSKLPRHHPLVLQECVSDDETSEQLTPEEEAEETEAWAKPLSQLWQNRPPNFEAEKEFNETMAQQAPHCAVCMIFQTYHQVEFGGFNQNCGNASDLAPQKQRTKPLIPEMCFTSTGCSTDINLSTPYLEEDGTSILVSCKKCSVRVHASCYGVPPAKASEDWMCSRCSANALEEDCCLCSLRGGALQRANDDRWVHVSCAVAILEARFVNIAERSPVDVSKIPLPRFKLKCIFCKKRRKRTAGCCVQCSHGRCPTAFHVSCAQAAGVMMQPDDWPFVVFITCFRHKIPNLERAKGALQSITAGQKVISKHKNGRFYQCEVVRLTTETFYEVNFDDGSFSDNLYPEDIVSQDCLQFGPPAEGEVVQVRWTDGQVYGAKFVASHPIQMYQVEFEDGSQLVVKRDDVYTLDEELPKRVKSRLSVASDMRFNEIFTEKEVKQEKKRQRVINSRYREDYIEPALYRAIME
row,SMILES,Potency
1,CC1CCN(CC#CCOc2ccc(Cl)cc2)CC1,active: 35.5 µM
2,Oc1cc(O)cc(/C=C/c2ccc(O)cc2O)c1,"inconclusive: 79.4 µM [inhibitor, partial curve]"
3,Cc1nc2n(c(=O)c1CCN1CCC(c3noc4cc(F)ccc34)CC1)CCCC2,"inconclusive: 89.1 µM [inhibitor, single point]"
4,C[C@]12CC[C@@H]3c4cc(O)c(O)cc4CC[C@H]3[C@@H]1CC[C@@H]2O,active: 12.6 µM
5,CC(C)N1CCN(c2ccc(O)cc2)CC1,"inconclusive: 79.4 µM [inhibitor, single point]"
6,Oc1cc2c(cc1CN1CCN(c3ccccc3)CC1)OCO2,"inconclusive: 35.5 µM [inhibitor, partial curve]"
7,Nc1ncnc2c1ncn2[C@@H]1O[C@H](COP(=O)(O)OP(=O)(O)OP(=O)(O)O)[C@@H](O)[C@H]1O,"inconclusive: 79.4 µM [inhibitor, partial curve]"
8,CCCNC(=O)c1cnn2c(C)c(Cc3c(C)cc(C)cc3C)c(C)nc12,"inconclusive: 89.1 µM [inhibitor, single point]"
9,COC(=O)C1=C(c2cccc3c2S(=O)(=O)c2ccccc2-3)C[C@@H]2CC[C@H]1N2C(=O)N1CCc2cc(OC)c(OC)cc2C1,"inconclusive: 31.6 µM [inhibitor, partial curve]"
10,CC(=O)OC1N=C(c2ccccc2)c2ccccc2NC1=O (configuration not stated),inactive
11,CCOC(=O)c1ccc2c(c1)n(CCO)c(C)[n+]2CC,active: 50.1 µM
12,N#CC1(c2ccccc2)CCN(C2CC(=O)N(c3ccc(F)cc3)C2=O)CC1 (configuration not stated),inactive
13,Cc1cc(/C=C2\C(=O)NC(=O)N(c3cccc(F)c3)C2=O)c(C)n1-c1cc(C(=O)O)cc(C(=O)O)c1,active: 79.4 µM
14,Cc1cccc(N2C(=O)NC(=O)/C(=C/c3ccc(N4CCOCC4)cc3)C2=O)c1,inactive
15,O=C1C2CCCN2C(c2cccnc2)N1c1nccs1 (configuration not stated),"inconclusive: 31.6 µM [inhibitor, single point]"
16,CCOc1ccc(N2C(=O)NC(=O)/C(=C\c3cc(OC)c(OC)cc3[N+](=O)[O-])C2=O)cc1,"inconclusive: 89.1 µM [inhibitor, partial curve]"
17,Cc1cccc(-n2c(O)c(/C=N/Nc3nc4c(c(=O)n(C)c(=O)n4C)n3C)c(=O)[nH]c2=S)c1,"inconclusive: 70.8 µM [inhibitor, single point]"
18,CCC(=Nc1ccccc1NC(C)=O)c1c(O)n(C)c(=O)n(C)c1=O,"inconclusive: 89.1 µM [inhibitor, partial curve, poor fit]"
19,O=c1[nH]c(O)c(/C=C2/C=CC(c3cc(Cl)ccc3Cl)=N2)c(=O)[nH]1,"inconclusive: 50.1 µM [inhibitor, partial curve]"
20,COc1ccc(C)cc1NC(=O)N(Cc1ccc2c(c1)OCO2)C1CCN(Cc2ccccc2)CC1,"inconclusive: 44.7 µM [inhibitor, partial curve]"
21,CCOc1ccc(CN(CCc2ccc3c(c2)OCO3)Cc2cccc(OC)c2)cc1,active: 6.31 µM

row,SMILES,Potency
1,Cc1cccc(-c2nc(CN3C(=O)CN=C(c4ccccc4)c4ccccc43)c(C)o2)c1,"inconclusive: 15.8 µM [inhibitor, full curve]"
2,O=C(c1cc(C(=O)NCc2ccccc2)c(=O)n(Cc2ccccc2)c1)c1cc(Cl)ccc1O,"inconclusive: 50.1 µM [inhibitor, single point]"
3,C=CCn1c(=O)c(C=Nc2cccc([N+](=O)[O-])c2)c(O)n(CCCC)c1=O,"inconclusive: 25.1 µM [inhibitor, full curve, poor fit]"
4,COc1ccc(CCNCc2ccccc2)cc1,active: 7.08 µM
5,Cc1cc(=O)n(-c2ccccc2)n1-c1ccccc1,inactive
6,Cc1ccccc1-n1c(O)c(/C=N/NC(=O)c2ccncc2)c(=O)[nH]c1=O,active: 89.1 µM
7,CCOC(=O)c1c(C)[nH]c(C)c1S(=O)(=O)N1CCC(C(=O)N2CCN(c3ccc(Cl)cc3)CC2)CC1,"inconclusive: 79.4 µM [inhibitor, partial curve]"
8,COc1ccc(CC(=O)NC(=S)NNC(=O)COc2c(C)cccc2C)cc1,active: 15.8 µM
9,CCC(=NCCN1CCOCC1)c1c(O)n(C2CCCCC2)c(=O)[nH]c1=O,inactive
10,CCN(CC)C(=O)c1ccc2c(c1)C1C=CCC1C(C(=O)O)N2 (configuration not stated),active: 11.2 µM
11,O=P(NS(=O)(=O)c1ccccc1)(Oc1ccccc1)Oc1ccccc1,"inconclusive: 89.1 µM [inhibitor, single point]"
12,O=C1C=CC(=O)C=C1,"inconclusive: 39.8 µM [inhibitor, single point]"
13,CN(C)c1ccc(/C=C/C=C2/C(=O)NC(=O)N(c3ccccc3)C2=O)cc1,"inconclusive: 20 µM [inhibitor, partial curve, poor fit]"
14,Cn1c(=O)c2c(nc(-c3ccc(N(CCCl)CCCl)cc3)n2C)n(C)c1=O,"inconclusive: 25.1 µM [inhibitor, full curve, poor fit]"
15,Cc1ccc(Cl)cc1NC(=O)N(Cc1ccc2c(c1)OCO2)C1CCN(Cc2ccccc2)CC1,"inconclusive: 39.8 µM [inhibitor, full curve]"
16,Cc1[nH]c2c(C(F)(F)F)cccc2c1CCN,inactive
17,CN(C)[C@@H]1C(=O)C(C(N)=O)=C(O)[C@@]2(O)C(=O)C3=C(O)c4c(O)cccc4[C@@](C)(O)[C@H]3[C@H](O)[C@@H]12,inactive and active: 1.41 µM
18,O=C(O)C1Sc2[nH]c(=O)sc2C2c3cc(Cl)ccc3OC(=O)C12 (configuration not stated),"inconclusive: 20 µM [inhibitor, full curve]"
19,Cc1ccc(NC(=O)Cn2c(=O)oc3ccccc32)cc1C,"inconclusive: 25.1 µM [inhibitor, partial curve]"
20,CN1CCN(c2ccc(N)cc2)CC1,"inconclusive: 56.2 µM [inhibitor, partial curve]"
21,CN1C(=O)/C(=C\N2CCc3ccccc32)C(=O)NC1=S,"inconclusive: 25.1 µM [inhibitor, single point]"
